Several values for one entry are separate records, joined by “and”; a condition that tells them apart may be missing. Identical values can stand only once. Screen size: about 340,000 compounds; about 6,900 (2%) were called active. Rule as the data show it: active = inhibition above about 30%; inactive = below that, where a call was filed. Only a part is listed here, and it is no random draw. The source gives no active or inactive call for entries shown without one.

Chain of UniProt P14416 (P14416 whole entry, looked up): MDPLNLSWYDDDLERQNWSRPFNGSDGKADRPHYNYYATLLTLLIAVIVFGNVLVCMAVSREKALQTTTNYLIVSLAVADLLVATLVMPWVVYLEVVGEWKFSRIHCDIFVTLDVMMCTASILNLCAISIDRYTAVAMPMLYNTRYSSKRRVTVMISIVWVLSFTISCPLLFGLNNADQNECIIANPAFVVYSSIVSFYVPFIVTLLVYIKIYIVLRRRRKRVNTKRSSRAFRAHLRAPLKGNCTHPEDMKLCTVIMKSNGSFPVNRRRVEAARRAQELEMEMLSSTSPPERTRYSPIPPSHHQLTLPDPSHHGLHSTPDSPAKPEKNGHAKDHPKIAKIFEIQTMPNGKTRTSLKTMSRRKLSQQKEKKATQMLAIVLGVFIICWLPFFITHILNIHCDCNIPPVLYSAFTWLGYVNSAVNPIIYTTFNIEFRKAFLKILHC

In this assay the target is D(2) dopamine receptor (Homo sapiens) (UniProt P14416). In words: HTS Assay for Allosteric Antagonists of the Human D2 Dopamine Receptor: Primary Screen for Antagonists. Also: 0% is about no effect. As to conditions: HEK293 TREx D2 cells, calcium flux, dopamine EC80; at 10 µM; stronger effect = higher value. An outline of the steps:
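Dopamine at EC80 is the agonist stimulus; test compounds precede it by 180 s. Calcium flux read kinetically in a force-coupled, inducible HEK293 T-REx D2 cell line.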
(Calcium assays in cells follow changes in intracellular calcium, usually with a dye or a luminescent sensor.)
As usually defined, the inhibition is the drop in the measured response relative to a control, in per cent. Turning to `COc1ccc2oc(-c3ccc(C)c(NC(=O)Cc4ccc(Cl)cc4)c3)nc2c1`, the inhibition is -12.5%.

`Cc1nc2cc(-c3ccccc3)nn2c(C)c1CCC(=O)N1CCN(c2ccccc2)CC1`: the inhibition is 6.36%.

`Cc1ccccc1CN1CCN(CC(=O)NCc2ccccc2Cl)C1=O`: the inhibition worked out at 12.5%.

For `O=C(NCCc1csc(-c2ccc(F)cc2)n1)c1ccc(Br)o1`, the inhibition is -6.69%.

Regarding `CCSc1ncc(Cl)c(C(=O)Nc2c(C(=O)c3ccccc3)oc3ccccc23)n1`, the inhibition is -1.45%.

For `CCc1ccc(C(=O)Nc2ccc3nn(-c4ccc(C)c(Cl)c4)nc3c2)cc1`, the inhibition is -5.32%.

Regarding `COc1cc(-c2nnc(SCCOc3ccc(C)c(Cl)c3)o2)cc(OC)c1OC`, the inhibition is 11.7%.

In the case of `CCOC(=O)CSc1nc2ccc(NC(=O)c3ccccc3)cc2s1`, the inhibition is -0.803%.

Consider `Cc1cc(C[n+]2cc(Br)ccc2N)c2ncccc2c1`, for which the inhibition was active: 31.6%.

As to `COc1cccc(C(=O)c2cn(CC(=O)Nc3cccc(C)c3C)c3nc(C)ccc3c2=O)c1`, the inhibition turned out to be 4.97%.

For the compound `Cc1ccc(C)c(N2CCN(Cc3nnc(-c4ccccc4)o3)CC2)c1`, the inhibition amounted to 3.88%.

Consider `CCOCCCn1c(SCC(=O)Nc2ccc(OC)cc2OC)nc2ccccc2c1=O`, for which the inhibition worked out at 0.738%.

Turning to `CCOC(=O)c1ccccc1NC(=O)Cn1c2ncccc2c(=O)n1-c1ccccc1`, the inhibition is -1.42%.

In the case of `CCN(Cc1ccccc1)C(=O)CN1C(=O)COc2ccc(S(=O)(=O)N3CCCCCC3)cc21`, the inhibition is -0.852%.

For `COc1ccc(C2=NN(C(=O)CSc3nc(=O)n4cc(C)ccc4n3)C(c3ccc(C)cc3)C2)cc1` (configuration not stated), the inhibition is active: 40.6%.

Take `Cc1ccc(NC(=O)CCS(=O)(=O)c2cccc3nsnc23)c(C)c1`: the inhibition was 0.963%.

Turning to `CCn1cc2nc(SCc3ccccc3F)n(Cc3ccc(C)cc3)c(=O)c2n1`, the inhibition is -2.67%.

Regarding `COc1ccc(-c2noc(CCC(=O)NCCCN3CCN(c4ccc(F)cc4)CC3)n2)cc1`, the inhibition was active: 95.3%.

As for `CCOc1ccc(NC(=O)CSc2nc(-c3ccc(F)cc3)cc(C(F)(F)F)c2C#N)cc1`, the inhibition is -5.32%.

Consider `CCCS(=O)(=O)Nc1cc2c(cc1NCc1ccccc1)n(C)c(=O)n2C`, for which the inhibition was 0.62%.

For `Cc1ccc2cccc(NC(=O)C(C)(C)Oc3ccc(Br)cc3)c2n1`, the inhibition came out at 5.36%.

Regarding `CCOc1ccc(NC(=O)CCS(=O)(=O)c2ccc3c(c2)n(C)c(=O)c(=O)n3C)cc1`, the inhibition was 16.7%.

For `N#C/C(=C\c1ccc(-c2cc(Cl)ccc2Cl)o1)C(=O)Nc1ccccc1C(=O)O`, the inhibition is -12.1%.

For the compound `CC(C)(C)C(=O)Nc1cccc(C(=O)OCc2cc(=O)n3nc(C4CCCCC4)sc3n2)c1`, the inhibition was -8.43%.

As for `CCOC(=O)c1[nH]cnc1C(=O)Nc1ccc(F)cc1`, the inhibition was determined as 2.39%.

As for `CCCCN(C)CCNC(=O)c1nn(-c2ccc(OC)cc2)c(=O)c2c1c1ccccc1n2C`, the inhibition is 11.9% and active: 34.1%.

With `Cc1cc(C)c(Cn2c(C(O)c3ccccc3)nc3ccccc32)c(C)c1` (configuration not stated), the inhibition is -5.21%.

As to `COc1cccc(CNC(=O)CCNS(=O)(=O)c2ccc3c(c2)oc(=O)n3C)c1`, the inhibition was -0.243%.

Regarding `NC(N)=NCCCC(NC(=O)c1ccccc1)C(=O)Nc1ccc2ccccc2c1` (configuration not stated), the inhibition was active: 53.7%.

`COc1ccccc1-c1cc(C(=O)NCc2ccccc2)no1`: the inhibition was active: 80.6%.

On to `CC1CCN(Cc2c(C#N)c3ccccc3n2C)CC1`, for which the inhibition was active: 74.4%.

Turning to `CCC(=O)N1CCc2cc(Br)cc(S(=O)(=O)NCCc3ccccc3)c21`, the inhibition is -27.1%.

For `CCOC(=O)c1c(NC(=O)COc2ccc(F)cc2)sc2c1CCC(C)C2` (configuration not stated), the inhibition was -6.31%.

Consider `CC(NC(=O)C(=O)Nc1c2c(nn1-c1ccc(F)cc1)CSC2)c1ccccc1` (configuration not stated), for which the inhibition is -8.68%.

Consider `COc1ccc(CN2CCC(=O)N([C@H](CO)c3ccccc3)CC2)cc1`, for which the inhibition is active: 52.5%.

For `COc1cccc(CNC(=O)CCn2cccn2)c1`, the inhibition is -11.3%.

In the case of `CCN1CCN(CCCNC(=O)c2ccc3c(c2)sc2nc(-c4ccc(OC)cc4)cn23)CC1`, the inhibition was 14.3%.

Take `CCOC(=O)c1c(-c2ccc(OC)cc2)oc2ccc(OCc3ccc(C(=O)OC)cc3)cc12`: the inhibition was -1.08%.

On to `CCNc1c(NC(=O)c2cc(OCC)c(OCC)c(OCC)c2)c(=O)oc2ccccc12`, for which the inhibition is -9.59%.

Turning to `COC(=O)c1nnn(CC(=O)Nc2ccc(Br)c(C)c2)c1N`, the inhibition was -6.57%.

As for `Cc1ccc(-c2onc(C)c2C)cc1S(=O)(=O)NC1CCCCC1`, the inhibition is -8.75%.

With `CC1Cn2cc(C(=O)Nc3cccc(C(F)(F)F)c3)c(=O)c3c(Cl)ccc(c32)O1` (configuration not stated), the inhibition was found to be 2.3%.

As to `Cc1ccc(-n2c(=O)c3c(c4cc(C)ccc4n3C)n(CC(=O)Nc3cc(C)cc(C)c3)c2=O)cc1`, the inhibition came to 3.87%.

Consider `Cc1ccc(C)c(NC(=O)c2cc(S(=O)(=O)NCCC3=CCCCC3)ccc2F)c1`, for which the inhibition turned out to be 23.7%.

In the case of `COc1ccc2c(c1)CCc1c(C(=O)Nc3c(C)nn(Cc4ccc(C)cc4)c3C)noc1-2`, the inhibition came out at 2.8%.

For the compound `COc1ccc(CNC(=O)C(C(C)C)N2Cc3ccccc3C2=O)cc1` (configuration not stated), the inhibition is -4.31%.

Regarding `CCCN(CCC)C(=O)C1CCN(c2ncnc3c2nc2n3CCCCC2)CC1`, the inhibition is -7.14%.

Take `CCOc1ccc(CCNC(=O)CN(c2ccc(C)cc2)S(=O)(=O)N(C)C)cc1OCC`: the inhibition was found to be 6.53%.

`O=c1c(S(=O)(=O)c2ccccc2)cn(Cc2ccc(F)cc2)c2cc(N3CCCCC3)c(F)cc12`: the inhibition was -4.32%.

Turning to `CNC(=S)N(CCc1cccc(C)c1)Cc1cc2cc(OC)c(OC)cc2[nH]c1=O`, the inhibition is active: 30.3%.

As for `COc1c(C)cc(Br)cc1C(=O)O`, the inhibition is active: 40.5%.

Take `COc1ccc(N(C)C(=O)CCS(=O)(=O)c2cccc3nsnc23)cc1`: the inhibition was -5.85%.

Regarding `COc1cccc2sc(N(Cc3cccnc3)C(=O)C3COc4ccccc4O3)nc12` (configuration not stated), the inhibition was 6.9%.

Consider `Cc1ccc(Nc2nc3ccccc3c3nncn23)cc1C`, for which the inhibition worked out at 13.2%.

Take `Cc1c(NC(=O)c2ccccc2F)cccc1-c1nc2cccnc2s1`: the inhibition was found to be 26.2%.

`CC(=O)N1CCCc2cc(S(=O)(=O)N(C)CC(=O)Nc3ccc(Cl)cc3C)ccc21`: the inhibition is -21%.

For the compound `COc1ccc(NC(=O)c2ccc(COc3ccccc3OC)o2)cc1OC`, the inhibition is -6.95%.

With `CCn1cc(C(=O)NCc2ccccc2)c(=O)c2cc(S(=O)(=O)N3CCCCCC3)ccc21`, the inhibition is 3.48%.

`COc1cccc(CNC(=O)CCC(=O)N2Cc3cccc(OC)c3Oc3ncccc32)c1OC`: the inhibition was found to be 3.52%.

As for `CCCNC(=O)CCc1c(C)nc2nc(-c3cc(OC)cc(OC)c3)nn2c1C`, the inhibition stood at 14.2%.

On to `COc1ccc(Br)cc1CNC(=O)C1CCCCN1S(=O)(=O)c1ccc(F)cc1` (configuration not stated), for which the inhibition was -0.807%.

For `Cc1ccc(OCc2nc3ccccc3n2Cc2ccccc2Cl)cc1`, the inhibition was -4.93%.

Values taken from PubChem BioAssay AID485344 (National Center for Advancing Translational Sciences (NCATS), 2010).
